Test results reported in the supplement of paper PMC3334620.
Over roughly 33,000 sequences, “E-score (-0.5 to 0.5)” has its median near -0.043; the highest 2% begin near 0.37. The list shows a part of the results.

biological target: T1, Upc2 (UniProt Q12151); test: PBM E-score (8-mer binding enrichment) (E-score (-0.5 to 0.5)); higher = stronger / more preferred TF binding; most listed sequences are background and not binding sites; settings: protein concentration: 200 nM; construct: GST-full length
T1 sequence: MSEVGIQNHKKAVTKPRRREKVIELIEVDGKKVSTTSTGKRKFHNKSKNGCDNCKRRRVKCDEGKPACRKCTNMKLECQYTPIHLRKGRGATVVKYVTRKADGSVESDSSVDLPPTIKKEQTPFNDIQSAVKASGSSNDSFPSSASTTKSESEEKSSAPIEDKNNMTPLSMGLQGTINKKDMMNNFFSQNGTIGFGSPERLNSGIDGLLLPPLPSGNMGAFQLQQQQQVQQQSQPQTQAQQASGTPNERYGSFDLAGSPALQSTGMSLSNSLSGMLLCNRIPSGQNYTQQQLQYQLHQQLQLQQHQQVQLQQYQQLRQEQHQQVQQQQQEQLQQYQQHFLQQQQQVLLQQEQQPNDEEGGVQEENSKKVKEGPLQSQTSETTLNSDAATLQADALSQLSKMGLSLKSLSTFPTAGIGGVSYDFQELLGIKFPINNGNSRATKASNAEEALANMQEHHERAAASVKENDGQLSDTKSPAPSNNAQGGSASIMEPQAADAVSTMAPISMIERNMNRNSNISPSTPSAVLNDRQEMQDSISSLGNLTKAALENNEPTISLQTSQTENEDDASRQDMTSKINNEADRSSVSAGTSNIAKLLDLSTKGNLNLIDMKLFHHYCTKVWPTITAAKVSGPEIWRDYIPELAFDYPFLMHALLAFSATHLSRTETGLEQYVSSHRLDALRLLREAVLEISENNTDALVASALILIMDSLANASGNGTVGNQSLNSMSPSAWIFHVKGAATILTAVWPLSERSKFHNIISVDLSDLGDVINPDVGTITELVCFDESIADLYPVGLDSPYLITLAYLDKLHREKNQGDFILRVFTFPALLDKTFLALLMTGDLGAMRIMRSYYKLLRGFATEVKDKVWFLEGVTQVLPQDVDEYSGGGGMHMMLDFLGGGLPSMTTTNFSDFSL
Procedure, shortened: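 Bound GST-tagged yeast transcription factors, applied at about 100-200 nM to double-stranded universal all-10-mer Agilent arrays, were detected with fluorescent anti-GST. Scans were normalised with masliner. A modified Wilcoxon-Mann-Whitney statistic, the E-score, was assigned to each ungapped eight-base word pooled with its reverse complement by the Universal PBM Analysis Suite.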

Row | Sequence | PBM E-score
1 | AGTTCACA | -0.004
2 | TCAATCAA | 0.0923
3 | CCTTGAAG | -0.25
4 | ACCCCATA | -0.106
5 | AGAAGGAT | -0.265
6 | GCGTTATA | 0.0655
7 | GACTCCCA | -0.132
8 | TACGTGCA | 0.208
9 | CACATCAA | 0.0633
10 | GGGTCGTA | 0.42
11 | GACACGAA | 0.0225
12 | GAATCAAC | 0.214
13 | AGCTCTAG | -0.0435
14 | CATGGGTC | -0.331
15 | GCATGCAC | -0.0917
16 | CCGAATCA | 0.0182
17 | GCCATTAA | -0.127
18 | TAGGGGAA | -0.11
19 | ACAGTCCC | -0.242
20 | GCTCTCCC | -0.0252
21 | AAAATATT | 0.00506
22 | AGTGGACC | -0.372
23 | AATGGGGC | -0.24
24 | ATGTCCGA | 0.104

Row | Sequence | PBM E-score
25 | CGATTTAA | 0.0422
26 | CATTAAAC | 0.206
27 | CTGTAACC | 0.0416
28 | CAGGGATG | -0.184
29 | CATAAATC | -0.0503
30 | GATTTGGA | -0.112
31 | GAGTAACA | 0.0415
32 | ATTATGCA | -0.0455
33 | AAAGCATG | -0.169
34 | CCGGGAAA | 0.0622
35 | GGGAGGGA | 0.00443
36 | ACGGAAGC | 0.142
37 | CACCCTGC | -0.264
38 | GCATTCCC | -0.103
39 | TACCTCAA | 0.0137
40 | AAGGGTCA | -0.287
41 | ATCTTCTA | 0.0247
42 | ACATACCC | -0.00987
43 | GCAAAGGA | 0.0614
44 | ATCAACTA | 0.089
45 | ATATTCCC | -0.105
46 | GAATTGCC | -0.0143
47 | AAAGCAGA | 0.00876
48 | GACCAACC | -0.0496

Row | Sequence | PBM E-score
49 | CAAGAGGA | -0.245
50 | CGCCAGCG | -0.221
51 | TTGTGAAA | -0.189
52 | ACATGATC | -0.176
53 | AAGGTTTA | -0.0703
54 | CTGGGCTA | -0.148
55 | CTATTTCA | -0.126
56 | CGCCAGGA | -0.213
57 | AGCGACGG | 0.255
58 | ACGAGCAG | 0.313
59 | AAATCATA | 0.231
60 | AAGCGAAC | 0.294
61 | CGCGCTCA | -0.0616
62 | ATACGACC | 0.474
63 | CGGGCGAA | -0.166
64 | GGGCGAAC | -0.0536
65 | GTCGGTTA | 0.337
66 | ACCGTCGT | 0.394
67 | CATCTTCC | -0.125
68 | ACATTGGC | -0.139
69 | CACCGGAC | 0.0115
70 | AACCATGA | -0.0289
71 | CAGGTTAC | -0.149
72 | CGGAGAGA | 0.0808

Row | Sequence | PBM E-score
73 | CAGGATGG | -0.141
74 | TAGCGATA | 0.0495
75 | AGGCGAAA | -0.103
76 | GACGGGAC | -0.0797
77 | GAATCCAA | -0.195
78 | AAGGAAAC | -0.0126
79 | ACCCAGTG | 0.00501
80 | ACACACTA | -0.0529
81 | AATGCATT | -0.146
82 | ATCCAACG | -0.165
83 | AAGCCCAA | -0.108
84 | CACAGAGA | -0.0832
85 | CAATCTAG | -0.043
86 | CAACCGGA | 0.00499
87 | CGGTAAAA | 0.206
88 | GACCTGCC | -0.116
89 | CACTAACG | 0.2
90 | CCTTCCTC | -0.157
91 | GCGTGACC | -0.101
92 | GAATATTC | 0.0333
93 | ACTCGGGA | -0.0171
94 | CGATCCGC | 0.066
